# From the supplement of paper PMC8728848
# The list shows a part of the results.
# B1: Mg3lysM (Mycosphaerella graminicola) (protein)
# chain: APQNPPTSCSAAPQPTGTGSPGTVCGSTTFTNYTVKAGDTLGAIAKQYNSGVCDIAKVNGIDNPDYIKPDQVLSIPANCVTPDNTSCVKPVPVITNTCVLGVGSTYTVKSGDSFSAIATSFNITLASLEARNPQIPNYDLIFPGQVINTPLCPNSVCDSIGTYVIESGDIFYNLAQSNNVTVGQLESLNVNVNVTDIHPGDIIILPHNCHNITASA
# Key:
# Assay in all cases: glycan array binding signal (z-score within array); higher = stronger binding
# Conditions in all cases: glycan notation: IUPAC condensed, linker removed
# [1] = biological target: GlcNAc(b1-4)GlcNAc(b1-4)GlcNAc(b1-4)GlcNAc(b1-4)GlcNAc(b1-4)GlcNAc
# Procedure, shortened: (§1)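 The binding signal is a Z-score computed within each array. Data were drawn from 3228 arrays in the Consortium for Functional Glycomics database, restricted to those with a known protein sequence. Scores were averaged over arrays of the same protein sequence at different concentrations or buffers, and over linkers, and negative values can be taken as non-binding.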
# [2] = biological target: GlcNAc(b1-4)[GlcNAc(b1-6)]GalNAc
# Procedure, shortened: as §1
# [3] = biological target: GlcNAc(b1-6)Gal(b1-4)GlcNAc
# Procedure, shortened: as §1
# GlcNAc(b1-6)GalNAc = biological target: GlcNAc(b1-6)GalNAc
# Procedure, shortened: as §1
# [4] = biological target: GlcNAc6S(b1-3)Gal(b1-4)GlcNAc
# Procedure, shortened: as §1
# Kdn(a2-3)Gal(b1-3)GalNAc = biological target: Kdn(a2-3)Gal(b1-3)GalNAc
# Procedure, shortened: as §1
# Kdn(a2-3)Gal(b1-3)GlcNAc = biological target: Kdn(a2-3)Gal(b1-3)GlcNAc
# Procedure, shortened: as §1
# Kdn(a2-3)Gal(b1-4)Glc = biological target: Kdn(a2-3)Gal(b1-4)Glc
# Procedure, shortened: as §1
# Kdn(a2-3)Gal(b1-4)GlcNAc = biological target: Kdn(a2-3)Gal(b1-4)GlcNAc
# Procedure, shortened: as §1
# [5] = biological target: Kdn(a2-3)Gal(b1-4)[Fuc(a1-3)]GlcNAc
# Procedure, shortened: as §1
# Kdn(a2-6)Gal(b1-4)GlcNAc = biological target: Kdn(a2-6)Gal(b1-4)GlcNAc
# Procedure, shortened: as §1
# [6] = biological target: Man(a1-2)Man(a1-2)Man(a1-3)Man
# Procedure, shortened: as §1
# [7] = biological target: Man(a1-2)Man(a1-2)Man(a1-6)[Man(a1-3)]Man
# Procedure, shortened: as §1
# Man(a1-2)Man(a1-3)Man = biological target: Man(a1-2)Man(a1-3)Man
# Procedure, shortened: as §1
# [8] = biological target: Man(a1-2)Man(a1-3)[Man(a1-2)Man(a1-6)]Man
# Procedure, shortened: as §1
# [9] = biological target: Man(a1-2)Man(a1-3)[Man(a1-2)Man(a1-6)]Man(a1-6)[Man(a1-2)Man(a1-2)Man(a1-3)]Man
# Procedure, shortened: as §1
# [10] = biological target: Man(a1-2)Man(a1-3)[Man(a1-2)Man(a1-6)]Man(a1-6)[Man(a1-2)Man(a1-2)Man(a1-3)]Man(b1-4)GlcNAc(b1-4)GlcNAc
# Procedure, shortened: as §1
# [11] = biological target: Man(a1-2)Man(a1-3)[Man(a1-6)]Man(a1-6)[Man(a1-2)Man(a1-3)]Man(b1-4)GlcNAc(b1-4)GlcNAc
# Procedure, shortened: as §1
# [12] = biological target: Man(a1-2)Man(a1-6)[Man(a1-3)]Man(a1-6)[Man(a1-2)Man(a1-2)Man(a1-3)]Man
# Procedure, shortened: as §1
# [13] = biological target: Man(a1-2)Man(a1-6)[Man(a1-3)]Man(a1-6)[Man(a1-2)Man(a1-2)Man(a1-3)]Man(b1-4)GlcNAc(b1-4)GlcNAc
# Procedure, shortened: as §1
# Man(a1-3)[Man(a1-6)]Man = biological target: Man(a1-3)[Man(a1-6)]Man
# Procedure, shortened: as §1
# [14] = biological target: Man(a1-3)[Man(a1-6)]Man(a1-6)[Man(a1-2)Man(a1-3)]Man(b1-4)GlcNAc(b1-4)GlcNAc
# Procedure, shortened: as §1
# [15] = biological target: Man(a1-3)[Man(a1-6)]Man(a1-6)[Man(a1-3)]Man
# Procedure, shortened: as §1
# [16] = biological target: Man(a1-3)[Man(a1-6)]Man(a1-6)[Man(a1-3)]Man(b1-4)GlcNAc(b1-4)GlcNAc
# Procedure, shortened: as §1
# [17] = biological target: Man(a1-3)[Man(a1-6)]Man(b1-4)GlcNAc(b1-4)GlcNAc
# Procedure, shortened: as §1
# [18] = biological target: Man(a1-3)[Man(a1-6)]Man(b1-4)GlcNAc(b1-4)[Fuc(a1-6)]GlcNAc
# Procedure, shortened: as §1
# Man(a1-6)Man = biological target: Man(a1-6)Man
# Procedure, shortened: as §1
# Man(b1-4)GlcNAc = biological target: Man(b1-4)GlcNAc
# Procedure, shortened: as §1
# MurNAc(b1-4)GlcNAc = biological target: MurNAc(b1-4)GlcNAc
# Procedure, shortened: as §1
# Neu5Ac(a2-3)Gal = biological target: Neu5Ac(a2-3)Gal
# Procedure, shortened: as §1
# [19] = biological target: Neu5Ac(a2-3)Gal(b1-3)GalNAc
# Procedure, shortened: as §1
# [20] = biological target: Neu5Ac(a2-3)Gal(b1-3)GalNAc(b1-3)Gal(a1-4)Gal(b1-4)Glc
# Procedure, shortened: as §1
# [21] = biological target: Neu5Ac(a2-3)Gal(b1-3)GalNAc(b1-4)Gal(b1-4)Glc
# Procedure, shortened: as §1
# [22] = biological target: Neu5Ac(a2-3)Gal(b1-3)GalNAc(b1-4)[Neu5Ac(a2-3)]Gal(b1-4)Glc
# Procedure, shortened: as §1
# [23] = biological target: Neu5Ac(a2-3)Gal(b1-3)GalNAc(b1-4)[Neu5Ac(a2-8)Neu5Ac(a2-3)]Gal(b1-4)Glc
# Procedure, shortened: as §1
# [24] = biological target: Neu5Ac(a2-3)Gal(b1-3)GalNAc6S
# Procedure, shortened: as §1
# [25] = biological target: Neu5Ac(a2-3)Gal(b1-3)GlcNAc
# Procedure, shortened: as §1
# [26] = biological target: Neu5Ac(a2-3)Gal(b1-3)GlcNAc(b1-2)Man
# Procedure, shortened: as §1
# [27] = biological target: Neu5Ac(a2-3)Gal(b1-3)GlcNAc(b1-2)Man(a1-3)[GlcNAc(b1-4)][Neu5Ac(a2-3)Gal(b1-3)GlcNAc(b1-2)Man(a1-6)]Man(b1-4)GlcNAc(b1-4)GlcNAc
# Procedure, shortened: as §1
# [28] = biological target: Neu5Ac(a2-3)Gal(b1-3)GlcNAc(b1-2)Man(a1-3)[Neu5Ac(a2-3)Gal(b1-3)GlcNAc(b1-2)Man(a1-6)]Man(b1-4)GlcNAc(b1-4)GlcNAc
# Procedure, shortened: as §1
# [29] = biological target: Neu5Ac(a2-3)Gal(b1-3)GlcNAc(b1-2)[Neu5Ac(a2-3)Gal(b1-3)GlcNAc(b1-4)]Man(a1-6)[Neu5Ac(a2-3)Gal(b1-3)GlcNAc(b1-2)Man(a1-3)]Man(b1-4)GlcNAc(b1-4)GlcNAc
# Procedure, shortened: as §1
# [30] = biological target: Neu5Ac(a2-3)Gal(b1-3)GlcNAc(b1-3)Gal(b1-3)GlcNAc
# Procedure, shortened: as §1
# [31] = biological target: Neu5Ac(a2-3)Gal(b1-3)GlcNAc(b1-3)Gal(b1-4)GlcNAc
# Procedure, shortened: as §1
# [32] = biological target: Neu5Ac(a2-3)Gal(b1-3)GlcNAc(b1-3)GalNAc
# Procedure, shortened: as §1
# [33] = biological target: Neu5Ac(a2-3)Gal(b1-3)GlcNAc(b1-6)GalNAc
# Procedure, shortened: as §1
binder,measurement,setting,value
B1,glycan array binding signal (z-score),[1],13.5
same,glycan array binding signal (z-score),[2],-0.013
same,glycan array binding signal (z-score),[3],-0.11
same,glycan array binding signal (z-score),GlcNAc(b1-6)GalNAc,0.007
same,glycan array binding signal (z-score),[4],-0.131
same,glycan array binding signal (z-score),Kdn(a2-3)Gal(b1-3)GalNAc,0.259
same,glycan array binding signal (z-score),Kdn(a2-3)Gal(b1-3)GlcNAc,-0.127
same,glycan array binding signal (z-score),Kdn(a2-3)Gal(b1-4)Glc,0.018
same,glycan array binding signal (z-score),Kdn(a2-3)Gal(b1-4)GlcNAc,0.003
same,glycan array binding signal (z-score),[5],-0.078
same,glycan array binding signal (z-score),Kdn(a2-6)Gal(b1-4)GlcNAc,-0.066
same,glycan array binding signal (z-score),[6],-0.099
same,glycan array binding signal (z-score),[7],0.015
same,glycan array binding signal (z-score),Man(a1-2)Man(a1-3)Man,-0.104
same,glycan array binding signal (z-score),[8],-0.142
same,glycan array binding signal (z-score),[9],-0.056
same,glycan array binding signal (z-score),[10],-0.074
same,glycan array binding signal (z-score),[11],-0.165
same,glycan array binding signal (z-score),[12],-0.05
same,glycan array binding signal (z-score),[13],-0.112
same,glycan array binding signal (z-score),Man(a1-3)[Man(a1-6)]Man,-0.119
same,glycan array binding signal (z-score),[14],-0.02
same,glycan array binding signal (z-score),[15],-0.018
same,glycan array binding signal (z-score),[16],-0.098
same,glycan array binding signal (z-score),[17],-0.125
same,glycan array binding signal (z-score),[18],-0.074
same,glycan array binding signal (z-score),Man(a1-6)Man,0.038
same,glycan array binding signal (z-score),Man(b1-4)GlcNAc,0.12
same,glycan array binding signal (z-score),MurNAc(b1-4)GlcNAc,-0.03
same,glycan array binding signal (z-score),Neu5Ac(a2-3)Gal,-0.059
same,glycan array binding signal (z-score),[19],-0.102
same,glycan array binding signal (z-score),[20],-0.102
same,glycan array binding signal (z-score),[21],0.013
same,glycan array binding signal (z-score),[22],-0.107
same,glycan array binding signal (z-score),[23],-0.087
same,glycan array binding signal (z-score),[24],-0.102
same,glycan array binding signal (z-score),[25],-0.042
same,glycan array binding signal (z-score),[26],-0.079
same,glycan array binding signal (z-score),[27],-0.062
same,glycan array binding signal (z-score),[28],-0.077
same,glycan array binding signal (z-score),[29],0.03
same,glycan array binding signal (z-score),[30],-0.107
same,glycan array binding signal (z-score),[31],-0.1
same,glycan array binding signal (z-score),[32],-0.12
same,glycan array binding signal (z-score),[33],-0.047
